Results as given in the supplement of paper PMC10126150.
Sequences with one replicate were seen in a single cluster, so their values are uncertain.

System: ATP
Assay: switch fluorescence ratio, 500 uM ATP over buffer (Cy3 cluster intensity, sum of 5 cycles each) (fold (ratio)); higher = stronger signal-on switching upon ATP binding; sequences stand for … in TCGTCGGCAGCGTCAGATGTGTATAAGAGACAGTTTTTTTTTTTTTTTTTTTTTTTTT…TC
Conditions: aptamer strand: ATP DNA aptamer (quencher-CACCTGGGGGAGTATTGCGGAGGAAGG + anchor), 100 nM annealed; ATP concentration: 500 uM; one replicate
Outline: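 Cy3-labelled switching-strand clusters on a modified Illumina MiSeq flow-cell were annealed to 100 nM quencher-labelled ATP aptamer, imaged in selection buffer, then imaged after 15 min with 500 uM ATP at 22 °C. Five buffer/ATP cycles ran, with NaOH stripping and re-annealing between them. The fluorescence ratio is summed target-cycle over summed buffer-cycle Cy3 intensity per cluster, averaged per switch-domain sequence. Clusters outside 100-1000 RFU were excluded.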
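Further: ATP exposure 15 min at 22 °C before imaging.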

Sequence	switch fluorescence ratio
AAAAAAACCG	1.18
AAAAAAATGA	1.01
AAAAAAGTCT	0.972
AAAAAATACC	1.04
AAAAAATCAT	1.05
AAAAAATTAC	1.03
AAAAACACAA	1.13
AAAAACCCAT	1.1
AAAAACTAC	1.41
AAAAACTCCG	1.27
AAAAATGTTT	1.05
AAAACAAGTT	1.01
AAAACAGGGG	0.991
AAAACCCAAG	1.09
AAAACGACGA	1.2
AAAACGGGGA	0.958
AAAACTGCCG	0.968
AAAACTTGAC	1.05
AAAACTTGCC	1.18
AAAACTTGTT	0.966
AAAAGACAGA	0.98
AAAAGCCCAT	0.928
AAAAGCGCCC	1.08
AAAAGGGCCA	0.99
AAAAGGGTAT	1.01

Sequence	switch fluorescence ratio
AAAAGGTAGT	1.03
AAAAGGTATA	0.984
AAAAGGTATT	0.99
AAAAGTCACG	1.03
AAAAGTGGTA	1.05
AAAAGTTAC	1.08
AAAAGTTAGG	0.967
AAAAGTTTAC	1.06
AAAATAGAGA	0.996
AAAATATGCG	0.963
AAAATCACCG	1.06
AAAATCCGTA	1.01
AAAATCTCGC	1.01
AAAATCTTGA	0.952
AAAATGACGG	1.01
AAAATTGATT	1.02
AAAATTTATC	1
AAACAAACGG	1.1
AAACAATAAA	0.97
AAACAATGGG	1.01
AAACAGCCA	1.02
AAACATCGTA	1.02
AAACCATAGA	0.997
AAACCCGTCG	0.991
AAACCCGTTG	1.01

Sequence	switch fluorescence ratio
AAACCGCATG	1.72
AAACCGCTTG	1.19
AAACGAAAGT	1.01
AAACGCGCTG	1.02
AAACGGCATG	1.04
AAACGGTGGG	1.03
AAACGTAC	1.92
AAACGTCCAG	1.01
AAACGTTGAG	1.04
AAACTAATAA	1.06
AAACTAGA	1.02
AAACTAGGAG	0.984
AAACTATGTT	1.05
AAACTCATTC	1.03
AAACTCCACT	1.15
AAACTCGAGA	0.969
AAACTCTATG	0.981
AAACTGGCGT	1.04
AAACTTGCGT	1.01
AAAGAAAGGC	0.983
AAAGACGCGA	1.17
AAAGAGGTAT	1.03
AAAGAGTGCC	0.98
AAAGATAAAG	0.981
AAAGATCGGG	0.965

Sequence	switch fluorescence ratio
AAAGATTTTC	0.986
AAAGCACCCG	1.06
AAAGCATCAC	2.05
AAAGCATTGG	1.04
AAAGCCGGAC	1.08
AAAGCGATAA	2.26
AAAGCGTGCT	1.03
AAAGCTCATG	1
AAAGCTCGGA	1.01
AAAGCTTGGG	1.01
AAAGGTATAC	2.48
AAAGGTTGGA	1.01
AAAGTATGGG	1.02
AAAGTCGGCG	0.988
AAAGTCTTG	0.975
AAAGTGAG	1.04
AAAGTGCTCG	0.975
AAAGTGGCAA	1.04
AAAGTGTCAG	0.999
AAAGTTGCTC	1.05
AAAGTTTACG	0.978
AAAGTTTGAG	1
AAATAAAGAA	0.943
AAATAAATAT	1.04
AAATAAGGT	1.01

Sequence	switch fluorescence ratio
AAATACAAAG	1
AAATACAGTT	0.984
AAATACTACA	1.08
AAATACTCGC	1.81
AAATACTCGT	1.13
AAATAGGCTC	1.01
AAATAGGGAT	0.984
AAATATACAC	1.11
AAATATTGAC	1.04
AAATATTTGC	1
AAATCATCTG	0.996
AAATCCAGGG	1.15
AAATCCGCCC	1.81
AAATCCGTCC	1.5
AAATCCTTCC	1.72
AAATCGGGGA	0.994
AAATCGTATC	0.96
AAATCGTCAA	1.07
AAATCTACAT	0.992
AAATCTGTGC	1.02
AAATCTTAGA	0.994
AAATGAAATA	0.938
AAATGAGCTC	0.999
AAATGCACAG	1.07
AAATGGACAT	0.98

Sequence	switch fluorescence ratio
AAATGGACTT	0.939
AAATGGCCTG	1.05
AAATGGGCGG	1.03
AAATGTCCCT	1.04
AAATGTGTTT	1.02
AAATGTTAGT	1.03
AAATTAGACG	1.13
AAATTATCGT	1
AAATTCAGG	1.02
AAATTCAGTG	0.975
AAATTCGCCT	1.09
AAATTGCGGA	0.981
AAATTGGCGT	0.972
AAATTGGCTC	1.05
AAATTGGTT	1.03
AAATTTAACC	0.979
AAATTTACCC	1.05
AAATTTGGCG	0.979
AAATTTTCCT	1.17
AACAAATCAG	0.962
AACAAATTTA	0.94
AACAACGAGA	1
AACAACTCTT	1.02
AACAAGAGTC	1.07
AACAAGTGG	0.977

Sequence	switch fluorescence ratio
AACAATTTCA	0.982
AACAATTTTG	1
AACACCGTAG	1.13
AACACGACGA	1.21
AACACGGTAC	1.7
AACACTCGAA	0.989
AACACTTGTG	1.05
AACAGACCTG	0.991
AACAGAGAC	1.03
AACAGAGTCC	1.02
AACAGGGAGA	1.03
AACAGGGTGA	1.03
AACAGGTGGT	1.27
AACAGTAGC	1.06
AACATATGGT	1.03
AACATCTTTT	0.999
AACCAAGCCA	0.997
AACCACCGAT	1.1
AACCACGACG	1.19
AACCACTGAA	1.04
AACCAGCAGA	1.06
AACCATTGT	1
AACCCAGATA	0.973
AACCCATATT	0.977
AACCCCGTCC	1.43

Sequence	switch fluorescence ratio
AACCCCTGTG	1.31
AACCCTAAAA	0.949
AACCGAAGTC	1.19
AACCGACAAG	1.29
AACCGCTATT	1.43
AACCGGCAGG	1
AACCGTGTAA	1.01
AACCTAGCAA	5.13
AACCTAGCTT	1.07
AACCTCATCG	1.09
AACCTCCACC	1.58
AACCTCCTGA	1.12
AACCTGGATC	2.43
AACCTGGCGC	1.29
AACGAAGTGT	1.03
AACGAATAAT	0.97
AACGAATTAT	2.41
AACGAATTCT	0.999
AACGACAACA	1.19
AACGACATGA	1.08
AACGAGGACT	1.04
AACGATGGAG	0.996
AACGATGTAT	0.942
AACGATTCAG	0.983
AACGCCCAAT	1.07
